Reference: PubChem BioAssay AID485344 (National Center for Advancing Translational Sciences (NCATS), 2010)
In all, about 340,000 compounds went through this assay and about 6,900 (2%) were called active. Cut-off read from the data, not from the text of the source: active = inhibition above about 30%; inactive = below that, where a call was filed. The list shows a part of the results, in another mix than the full data. Where no call is shown, the source filed none.

Molecular target: D(2) dopamine receptor (Homo sapiens) (UniProt P14416)
Experiment: HTS Assay for Allosteric Antagonists of the Human D2 Dopamine Receptor: Primary Screen for Antagonists; note: 0% is about no effect
Settings: HEK293 TREx D2 cells, calcium flux, dopamine EC80; at 10 µM; stronger effect = higher value
Procedure, shortened: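 Overnight-induced (tetracycline, 30 C) HEK293 T-REx cells carrying force-coupled D2 receive a no-wash calcium dye, then compound, then EC80 dopamine at 180 s; signals are read kinetically throughout.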

Chain of UniProt P14416 (P14416 whole entry, looked up): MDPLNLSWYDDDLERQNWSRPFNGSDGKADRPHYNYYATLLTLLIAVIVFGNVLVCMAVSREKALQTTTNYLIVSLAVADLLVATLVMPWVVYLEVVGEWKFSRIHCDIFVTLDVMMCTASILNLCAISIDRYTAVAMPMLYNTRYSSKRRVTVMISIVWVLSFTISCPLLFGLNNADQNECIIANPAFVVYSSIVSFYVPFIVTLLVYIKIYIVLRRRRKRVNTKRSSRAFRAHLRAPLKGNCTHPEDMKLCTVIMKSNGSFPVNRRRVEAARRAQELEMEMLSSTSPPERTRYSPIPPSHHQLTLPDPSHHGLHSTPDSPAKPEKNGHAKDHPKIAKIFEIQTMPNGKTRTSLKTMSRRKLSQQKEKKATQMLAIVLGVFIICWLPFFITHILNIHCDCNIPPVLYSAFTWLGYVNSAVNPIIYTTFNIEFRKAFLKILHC

Structure (SMILES) | inhibition
COc1cccc(C(=O)N(Cc2cccc(F)c2)C2CCS(=O)(=O)C2)c1 (centres undefined) | 7.34%
Cc1ccc2c(c1)N(CC(=O)Nc1ccccc1C(F)(F)F)C(=O)c1cccnc1O2 | 4.09%
COc1ccc(Cn2ccnc2SCC(=O)Nc2ccc3c(c2)OCCO3)cc1 | -7.07%
COc1ccc(NC(=O)CC2Oc3ccc(C)cc3NC2=O)cc1Cl (centres undefined) | 18.1%
COc1cc2c(cc1OC)C(COc1ccc3c(C)cc(=O)oc3c1)N(C(=O)Cc1ccc(F)cc1)CC2 (centres undefined) | -7.76%
Cc1cc(C)cc(-n2ccn(CC(=O)NCCc3ccccc3)c(=O)c2=O)c1 | 23.1%
CN=c1scc(-c2ccc(F)cc2)n1/N=C/c1ccc(O)c(O)c1 | active: 76.2%
Cc1cccc(N(CC(=O)NCCc2ccccc2)S(=O)(=O)c2ccccc2)c1C | 2.29%
Cc1ccc(-c2csc(-c3c(N)c(C(=O)c4ccc5c(c4)OCO5)n4ccccc34)n2)cc1C | 1.6%
COc1ccc(CCNC(=O)c2cc3c(=O)n4cccc(C)c4nc3n2C)cc1 | -11%
CCOc1ccc(C2C(=O)N(C3CCCCCC3)CC(=O)N2Cc2ccc(C)cc2)cc1OC (centres undefined) | 3.53%
O=S(=O)(c1ccc(F)cc1)N1CCc2ccccc21 | active: 36%
CCC(CC)C(=O)Nc1nnc(S(=O)(=O)N(C)c2cc(C)cc(C)c2)s1 | -11.5%
Cc1cccc(CSCCNC(=O)C2CCN(S(=O)(=O)Cc3ccccc3)CC2)c1 | 7.07%
COc1ccc2c(C)c(CCC(=O)NCc3cccc(Cl)c3)c(=O)oc2c1 | -9.44%
CCOc1cc(C(=O)NN2CCOCC2)cc(OCC)c1OCC | active: 36.3%
COc1ccc(-n2c(/C=C/c3cccc4ccccc34)nc3ccccc3c2=O)cc1OC | -27.3%
CCC(Sc1nc2nccnc2c(=O)n1Cc1ccccc1Cl)C(=O)NC1CCCCC1 (centres undefined) | 4.93%
Cc1ccc2nc(NCc3ccccc3)c3nncn3c2c1 | -8.18%
CCn1c(=O)c2cc(C(=O)Nc3cccc(C(F)(F)F)c3)sc2c2ccccc21 | 3.37%
COc1ccc(C(=O)Nc2ccc(-c3nc4ncccc4o3)cc2C)cc1Br | 2.96%
CCNC(=O)CCCN1C(=O)CCn2nc(-c3cccn3C)cc21 | 3.34%
CN(C(=O)CSc1nc2ccc(NC(=O)c3cccc(F)c3)cc2s1)c1ccccc1 | 3.94%
COc1cc(Cl)c(C)cc1NC(=O)CC1Oc2ccccc2NC1=O (centres undefined) | 6.15%
Cc1ccc(Cl)cc1N1CCN(CC(O)COCc2ccco2)CC1 (centres undefined) | active: 97.4%

Structure (SMILES) | inhibition
Fc1ccc(CNCCCSc2nnnn2-c2ccccc2)cc1 | -6.83%
COc1ccc(NC(=O)CSCc2cc(=O)c3cc(C)ccc3[nH]2)cc1 | 5.13%
COc1ccc(Cn2c(C(=O)O)c(CNCc3ccc(OC)cc3OC)c3ccc(C)cc32)cc1 | 6.85%
COc1ccc(CCCc2nnc(SCC(=O)Nc3cc(F)ccc3C)o2)cc1 | 16.7%
Nc1nnc(-c2ccccc2F)s1 | active: 44.9%
CCOC(=O)c1ccccc1NC(=O)c1cn(CC(C)C)c(=O)c2cc(OC)c(OC)cc12 | -4%
COc1ccc(N2CCC(CNS(=O)(=O)c3cccc(C(F)(F)F)c3)C2)cc1 (centres undefined) | active: 38%
COc1ccc(OC)c(-c2noc(CSc3nnc(-c4ccccc4)n3-c3ccccc3)n2)c1 | 1.45%
CC(C)n1ncc2c(C(=O)NCc3ccccc3CN(C)C)cc(C3CC3)nc21 | active: 79.9%
Cc1ccc(OCC(=O)Nc2nnc(S(=O)(=O)N3CCc4ccccc43)s2)cc1 | 20.6%
O=C(CN1CCSC1=O)N1CCN(S(=O)(=O)c2ccccc2)CC1 | active: 37.3%
COc1ccc(N2CCN(S(=O)(=O)c3ccc(C4CCCCC4)cc3)CC2)cc1 | -7.27%
COc1ccc(Cl)cc1NC(=O)CSc1nc(=O)n(Cc2ccco2)c2c1CCC2 | -16.2%
O=C(CSc1nnc(-c2ccncc2)n1-c1ccccc1)Nc1ccc(F)cc1 | 14%
CCOc1ccccc1CNC(=O)CSc1n[nH]c(-c2ccccc2)n1 | 2.58%
CC(C)c1noc(-c2ccccc2OCC(=O)Nc2ccc([N+](=O)[O-])cc2)n1 | 13.6%
COc1ccc(OC)c(C2C(C(=O)Nc3ccc(C)cc3C)=C(C)Nc3c(C(=O)Nc4ccc(F)cc4)cnn32)c1 (centres undefined) | 1.59%
Cc1cc(=O)n(Cc2cccc(Cl)c2)c2c1c(C)nn2C | -0.585%
Cc1ccc(NC(=O)Nc2nnc(SCC(=O)N3CCCCC3)s2)cc1 | -13.4%
CC(C)c1ccc2c(c1)NC(c1ccc(F)cc1)=NC(c1cccs1)=N2 | 23.2%
Fc1ccc(-c2noc3ncnc(NCCc4ccc(Cl)cc4)c23)cc1 | -5.77%
COc1cccc(N2CC(NC(=O)c3cc4ccccc4o3)CC2=O)c1 (centres undefined) | 19%
COc1ccc2c(c1)c(C(O)CN1CCC(Cc3ccccc3)CC1)c(C)n2C (centres undefined) | active: 50.8%
COc1cccc(CNC(=O)N2CCc3c(sc4c3CCCC4)C2c2ccc(F)cc2)c1 (centres undefined) | -4.48%
C=CCn1c(-c2c(C)nc3cc(C)ccn23)n[nH]c1=S | active: 35.6%

Structure (SMILES) | inhibition
Cc1nc2ncnn2c(C)c1CCC(=O)N1CCN(c2ccc(F)cc2)CC1 | 14%
Cc1cccc(C(=O)NCCc2nc3ccccc3n2Cc2ccccc2Cl)c1 | 4.55%
Cc1cc(Nc2cccc(C(F)(F)F)c2)nc2ccc(NC(=O)Cc3ccc(Cl)cc3)cc12 | 7.43%
COc1ccc(OCC(=O)Nc2ccc(-c3nc4cc(Cl)ccc4o3)cc2)cc1 | 1.45%
CCOc1ccccc1NC(=O)Cn1c(=O)n(CC(=O)NCc2ccccc2Cl)c(=O)c2sccc21 | -18.2%
CCCN(CCC)C(=O)Cn1c(=O)n(-c2ccc(OC)cc2OC)c(=O)c2c3c(sc21)CCC3 | -4.69%
CCOc1ccc(CNC(=O)c2ccc3c(c2)c(C)c(C)n3C)cc1 | 7.71%
COc1ccc(CCNC(=O)CCCCn2c(=O)c3ccccc3n(Cc3cc(C)ccc3C)c2=O)cc1OC | 5.19%
Cc1ccc(Sc2ccc(N3CCCC(C(=O)Nc4ccc(F)c(Cl)c4)C3)nn2)cc1 (centres undefined) | 2.29%
CCOc1ccc(-n2c(SCc3ccccc3)nc3c([nH]c4ccccc43)c2=O)cc1 | -6.58%
CCCn1c2ccccc2c2cnn(CC(=O)NCC3CCN(Cc4ccc(C)cc4)CC3)c(=O)c21 | -0.258%
CCCCOc1cccc(C(=O)Nc2sc3c(c2C(=O)OCC)CCCC3)c1 | -4.21%
COc1cccc(NC(=O)CSc2nc(=O)n(Cc3cccnc3)c3c2CCC3)c1 | -12.2%
Cc1cccc2c(=O)cc(CSc3ccccc3NC(=O)C(C)C)[nH]c12 | -5.99%
Cc1ccc2nc3c(cc(C#N)c(=O)n3-c3nnc(SCc4ccc(F)cc4)s3)c(=O)n2c1 | -12.6%
CC(C)(C)c1ccc(OCC(=O)Nc2ccc(C(=O)OC3CCCCC3)cc2)cc1 | -11.6%
CC(C)Cn1nc(NC(=O)c2cccc(Cl)c2)c2cc3ccccc3nc21 | 6.11%
CCc1ccccc1NC(=O)c1oc(=O)c2ccccc2c1-c1ccccc1 | 3.06%
NC(=O)c1nc(Nc2ccccc2)sc1NC(=O)c1c(F)cccc1F | -1.73%
CCOC(=O)c1ccc(NC(=O)c2c(NCc3sccc3C)sc3c2CCC(C)C3)cc1 (centres undefined) | 6.23%
Cc1ccc(C)c(N2CCN(C(=O)CCc3nnc4n(C)c(=O)c5ccccc5n34)CC2)c1 | -4.79%
CN1CCN(C(CNC(=O)C(=O)Nc2ccc(Cl)cc2)c2cccnc2)CC1 (centres undefined) | -0.427%
CCOCCCNC(=O)c1c[nH]c2ccc(S(=O)(=O)N(C)c3ccc(Cl)cc3F)cc2c1=O | 8.18%
CCOC(=O)c1cccnc1SCC(=O)N(CC)c1cccc(C)c1 | -15%
CC(C)C[C@H](N)c1nnc(SCc2ccc(Cl)cc2Cl)o1 | 11.7%

Structure (SMILES) | inhibition
Cc1ccc(-c2nc(S(=O)(=O)c3ccc(F)cc3)c(N3CCN(c4ccccc4)CC3)o2)cc1 | -14.7%
Cc1oc(-c2ccc(Cl)cc2)nc1CSCC(=O)NC1CCN(Cc2ccccc2)CC1 | active: 56.4%
CC1=C(c2ccc(C(C)C)cc2)S(=O)(=O)N=C1N1CCN(c2ccccc2F)CC1 | 0.662%
CCOc1ccccc1NC(=O)Cn1nnc(C(=O)NCc2cccs2)c1N | -17.7%
CCCCn1c(SCC(=O)c2ccc(OCC)cc2)nc2cc(S(N)(=O)=O)ccc21 | active: 44.7%
O=C(NCc1ccccc1)c1cc(Sc2cccc(Cl)c2)nc2ccccc12 | 19%
CC(=O)N1c2ccccc2C(=O)C1N1CCN(c2ccc(Cl)cc2)CC1 (centres undefined) | 3.08%
COc1ccc(NCc2cc3cc4c(cc3n(CC(=O)Nc3ccc(C)cc3C)c2=O)OCO4)cc1 | 2.86%
CN(C)S(=O)(=O)c1ccc(Cl)c(NC(=O)CN2CCc3ccccc3C2)c1 | active: 87.3%
CCOC(=O)c1cc(OC(=O)c2ccccc2F)n(-c2ccccc2)n1 | 11.4%
CC1CCc2onc(C(=O)Nc3ccc(Cl)cc3)c2C1 (centres undefined) | 15.6%
COc1ccc(-c2noc(CNC(=O)c3cc(OC)c(OC)c(OC)c3)n2)cc1 | 8.37%
COc1cccc(-c2nc(-c3ccc(Br)o3)no2)c1 | 3.27%
Cc1[nH]c2ccc(C(=O)NCCCN3CCCCC3)cc2c1C | 3.46%
CC(=O)N1CCC(N(Cc2ccc(C)o2)C(=O)Nc2ccccc2F)CC1 | 13.5%
Cc1nc2c(c(C)c1CCC(=O)NCc1ccc(F)cc1)c(=O)n(C)c(=O)n2C | -1.97%
CCOc1ccccc1NC(=O)CSc1c2c(nc3ccc(Cl)cc13)CCCC2 | -5.32%
CCOC(=O)C1CCCN(S(=O)(=O)c2cc(-c3onc(C)c3C)ccc2OC)C1 (centres undefined) | 3.62%
CCc1c(-c2ccccc2)nc2ccccc2c1C(=O)NC(C)c1ccccc1 (centres undefined) | 5.89%
CCOc1ccccc1NC(=O)c1nc(S(=O)(=O)Cc2cccc(C)c2)ncc1Cl | -11.5%
CN(C)c1nc(SCC(=O)Nc2ccccc2)nc(N2CCOCC2)n1 | active: 31.3%
COc1ccccc1C(c1c(O)cc(C)n(Cc2ccco2)c1=O)N1CCCCC1 (centres undefined) | -11.1%
CCC(Oc1ccccc1F)C(=O)Nc1cc(-c2ccccc2)no1 (centres undefined) | 6.65%
COc1ccc(C(=O)NCCn2cc(SCC(=O)Nc3ccc4c(c3)OCCO4)c3ccccc32)cc1 | -4.2%
